# Experimental data: article PMC4336329 (PLoS ONE, 2015)
# The whole screen tested about 310,000 compounds, of which about 14,000 (4.5%) showed an effect of 50% or more. Effects have a minus sign here. The list shows a part of the results.
# Molecular target: human ether-à-go-go-related gene (hERG) potassium channel (human, UniProt Q12809)
# Experiment: primary screen, population patch clamp on CHO cells stably expressing hERG
# 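Note: peak tail current of the secondary pulse compared with the same well before compound.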
# Chain of human ether-à-go-go-related gene (hERG) potassium channel (Q12809 whole entry, looked up): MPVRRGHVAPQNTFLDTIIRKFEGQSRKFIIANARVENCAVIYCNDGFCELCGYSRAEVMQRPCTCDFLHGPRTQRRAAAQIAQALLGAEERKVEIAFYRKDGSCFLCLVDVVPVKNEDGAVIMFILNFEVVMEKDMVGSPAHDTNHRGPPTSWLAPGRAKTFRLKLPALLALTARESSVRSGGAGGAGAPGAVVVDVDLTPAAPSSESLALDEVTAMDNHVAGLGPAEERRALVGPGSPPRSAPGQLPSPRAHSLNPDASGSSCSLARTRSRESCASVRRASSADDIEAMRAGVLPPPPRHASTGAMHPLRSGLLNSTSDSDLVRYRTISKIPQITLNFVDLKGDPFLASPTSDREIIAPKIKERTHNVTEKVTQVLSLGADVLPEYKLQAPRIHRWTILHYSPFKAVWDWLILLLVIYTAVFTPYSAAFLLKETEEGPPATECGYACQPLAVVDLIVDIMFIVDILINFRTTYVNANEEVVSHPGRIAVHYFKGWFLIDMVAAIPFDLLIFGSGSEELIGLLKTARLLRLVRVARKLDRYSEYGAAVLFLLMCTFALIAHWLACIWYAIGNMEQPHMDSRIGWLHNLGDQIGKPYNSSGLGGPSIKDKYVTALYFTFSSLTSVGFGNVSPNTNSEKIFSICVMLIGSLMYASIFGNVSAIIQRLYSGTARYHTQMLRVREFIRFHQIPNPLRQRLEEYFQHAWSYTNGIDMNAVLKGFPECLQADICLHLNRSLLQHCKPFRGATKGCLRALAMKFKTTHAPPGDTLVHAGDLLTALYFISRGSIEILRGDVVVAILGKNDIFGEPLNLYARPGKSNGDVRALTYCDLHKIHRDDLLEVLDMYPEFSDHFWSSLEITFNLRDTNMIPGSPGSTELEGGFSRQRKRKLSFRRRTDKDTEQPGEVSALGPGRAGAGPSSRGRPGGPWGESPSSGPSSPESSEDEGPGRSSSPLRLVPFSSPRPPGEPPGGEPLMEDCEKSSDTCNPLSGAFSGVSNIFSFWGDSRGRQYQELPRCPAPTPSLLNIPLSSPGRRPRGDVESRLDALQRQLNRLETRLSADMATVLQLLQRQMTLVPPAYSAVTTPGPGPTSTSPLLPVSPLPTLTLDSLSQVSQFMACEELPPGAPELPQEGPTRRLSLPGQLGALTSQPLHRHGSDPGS
row,SMILES,"hERG current change (%, negative = inhibition) at 10uM [%]"
1,CNc1nc(-c2ccccc2)nc(-c2ccccc2)c1C#N,16.5
2,CCOC(=O)Cn1cc(C(=O)C(=O)N2CCOCC2)c2ccccc21,-7.17
3,Cc1ccc(-n2nnc(-c3nccs3)n2)cc1,-17.1
4,O=C(NCCNC(=O)c1ccccc1F)c1ccco1.O=C(O)C(=O)O,13.9
5,O=C(CCC(=O)c1ccc(F)cc1)Nc1cccc(S(=O)(=O)Nc2cccc(Cl)c2)c1,1.4
6,Cc1ccc(NC(=O)Nc2nnc(Cc3ccc([N+](=O)[O-])cc3)s2)cc1,10.6
7,Cc1c(C#N)c(N)c(C(=O)c2ccccc2)n1Cc1ccccc1,-16.3
8,Cn1c(C(=O)N2CCCCCC2)cc2c(=O)n(C)c3ccccc3c21,-13.6
9,Cc1cccc2[nH]c(-c3ccc(NC(=O)c4ccco4)cc3)nc12,-5.91
10,CCCS(=O)(=O)N1CCCC(C(=O)NCCc2ccccc2)C1 (stereo not drawn),-1.02
11,Cc1ccc(C)c(OCc2cc(C(=O)N(C)Cc3nccn3C)no2)c1,2.12
12,COc1cc(NC(=O)c2cccc(Cl)c2)c(OC)cc1NC(=O)CN1CCOCC1,-27.2
13,COc1cc([N+](=O)[O-])ccc1NC(=O)NN1CCN(C)CC1,-40.4
14,COc1ccccc1NC1=C(Cl)C(=O)N(c2ccccc2)C1=O,-11.6
15,O=C(OCCN(C1=NS(=O)(=O)c2ccccc21)c1ccccc1Cl)c1ccc(Cl)cc1,-8.94
16,C=C1CCN(c2ccc(C(=O)O)cc2[N+](=O)[O-])CC1,17
17,O=C(OCc1cccc([N+](=O)[O-])c1)c1cccnc1Cl,-16.2
18,O=C(NCCc1ccccc1)C(=O)NCC1OCCN1S(=O)(=O)c1ccc(F)cc1 (stereo not drawn),-16
19,CCOC(=O)C1(Cc2ccccc2)CCCN(Cc2cnn(CC)c2)C1 (stereo not drawn),-3.92
20,COCCCNC(=O)c1ccc(Cn2c(=O)c3ccccc3n(CC(=O)NCCc3ccc(OC)c(OC)c3)c2=O)cc1,5.93
21,O=C(Nc1ccc(F)cc1)c1cn(-c2ccccc2)nc1-c1ccncc1,-45.4
22,COC(=O)C1C(O)=C(C=Nc2ccc(N)cc2)C(=O)CC1(C)C (stereo not drawn),4.26
23,CC1CCN(C(=O)Cn2cc(C#N)c3ccccc32)CC1,11.6

row,SMILES,"hERG current change (%, negative = inhibition) at 10uM [%]"
1,CCc1ccc(NC(=O)C2CC(=O)Nc3ncnn32)cc1 (stereo not drawn),2.88
2,CSCCC(NC(=O)c1c(C)oc2c1CCCC2)C(=O)O (stereo not drawn),8.97
3,COc1ccc(OC)c(NC(=S)NN2CCOCC2)c1,17.6
4,Cc1nc2ccccn2c1C(=O)N/N=C/c1cc(C)n(-c2ccc(Br)cc2)c1C,2.03
5,C=CCc1cccc(/C=N/NC(=O)CNc2cccc3ccccc23)c1O,-5.81
6,COC(=O)c1ccc(NC(=O)CCc2nnc3ccc(N4CCC5(CC4)OCCO5)nn23)cc1,10.1
7,OC(COc1ccc(CNCc2cccnc2)cc1)CN1CCc2ccccc2C1 (stereo not drawn),-13.5
8,COc1ccc(NC(=O)C2Cc3ccccc3C(=O)O2)cc1 (stereo not drawn),-5.14
9,c1cncc(-c2nc3c(ccc4ccccc43)[nH]2)c1,7.24
10,CN(C)CC1CCCCC1OC(=O)c1ccc(S(=O)(=O)N(C)c2ccccc2)cc1 (stereo not drawn),17.8
11,O=C(Cc1ccccc1Cl)Nc1cc(S(=O)(=O)N2CCOCC2)ccc1N1CCOCC1,-10.6
12,Cc1c(Cl)cccc1N1C(=O)C2ON(c3ccccc3)C(c3cccnc3)C2C1=O (stereo not drawn),4.12
13,CNC(=S)NNC(=O)c1sc2cc(C(F)(F)F)cnc2c1-c1cccnc1,20.7
14,CCOC(=O)N1CCN(C(=O)C(=O)NNC(=O)COc2ccc(Cl)cc2)CC1,17.2
15,CN(C)c1ccc(C(=O)NNC(=O)Nc2ccccc2)cc1,16.8
16,O=C(CCSc1ccccc1)OCn1nnc2ccccc2c1=O,4.21
17,Cc1nc2scc(C)n2c(=O)c1S(=O)(=O)NCCc1ccccc1,12
18,Cc1cc(C)nc(NS(=O)(=O)c2ccc(NC(=S)NC(=O)C(C)C)cc2)n1,-9.34
19,O=C(c1ccco1)N1CCN=C1SCc1cccc(Cl)c1,20.1
20,O=C(N1CCN(c2ccccc2)CC1)C12CC3CC(CC(C3)C1)C2,-47.6
21,CCOc1ccc(NC(=O)CN(C)CC(=O)Nc2ccc(F)c(F)c2F)cc1OCC,0.45
22,CC(=O)N1c2ccc(S(=O)(=O)NCCC(=O)NC3CCCCCC3)cc2CC1C (stereo not drawn),-0.561
